The source of these data is the supplement of paper PMC10338343.

In this experiment the test system is MIWI (PIWIL1) piRISC loaded with L1MC piRNA (30 nt). Kind of experiment: pre-steady-state target cleavage rate (min^-1); MIWI and MILI are mouse PIWI proteins and EfPiwi is from a freshwater sponge; tags in brackets are library labels; higher = faster piRNA-guided slicing of the target. Particulars: guide: L1MC piRNA 5'p-UAACUAAAUACUAUGCAAGCUGUAGGUCCU
The essentials:
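In HEPES–potassium acetate buffer at 33 °C, […] transcribed, DNA-blocked target RNA library was mixed with 1 nM active affinity-purified piRISC carrying one synthetic guide, with or without 500 nM GTSF1 partner protein, for 0–8 or 0–960 min. Uncleaved targets were sequenced and normalised to depth and to weakly complementary targets; three trials were pooled and k3 was capped at 0.0001 min^-1. The pre-steady-state cleavage rate followed from a burst-and-steady-state fit.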

The mark [1] stands for this setting: auxiliary factor: 500 nM mouse GTSF1.
[2] abbreviates: auxiliary factor: none (no GTSF1).

± gives the standard deviation. The entries are a selection whose mix differs from that of the whole data set.
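Note: 1 nM active piRISC with 0.1 nM target library at 33 °C single turnover.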

On to UCCUGGAUGAGCUUGCAUAGUAUUGAGUUA, for which the “pre-steady-state target cleavage rate” value reads like this: under setting [1], 0.426 ± 0.048; under setting [2], 0.0263 ± 0.0075.
For UGGAGCUACAGCUUGCAUAGUAUUUUGUUA, the “pre-steady-state target cleavage rate” value runs as follows: under setting [1], 0.992 ± 0.05; under setting [2], 0.0525 ± 0.0077.
For UGGACCUACAGCUCUGCAUAGUAUUUAGUUA the same measures were 1.56 ± 0.11 and 0.0566 ± 0.014.
On to UCCUGGAUGUGCUUGGCAUAGUAUUUAGUUA, for which the “pre-steady-state target cleavage rate” value under setting [1] is 0.0854 ± 0.02 and the “pre-steady-state target cleavage rate” value under setting [2] stood at 0.00911 ± 0.0033.
For UCCUGGAUGUCCUUGCUUAGUAUUUAGUUA, the “pre-steady-state target cleavage rate” value by setting is: under setting [1], 0.00931 ± 0.0036; under setting [2], 0.00504 ± 0.0017.
On to UGGACCUACAGCUUGCAUAGUCAUUUAGUUA, for which the “pre-steady-state target cleavage rate” value is, setting by setting: under setting [1], 0.0177 ± 0.0047; under setting [2], 0.00444 ± 0.0017.
Consider UCCUGGAUGAGCUUGCAUAGGAUUUAGUUA, for which the “pre-steady-state target cleavage rate” value by setting is: under setting [1], 0.0129 ± 0.0034; under setting [2], 0.00618 ± 0.003.
The corresponding values for UCCUGGAACAGCUUGCAUAGUUAAUAGUUA are 0.0826 ± 0.016 and 0.00973 ± 0.0037.
For UGGACCUACAGCUUGGUUAGUAUUUAGUAA, the “pre-steady-state target cleavage rate” value runs as follows: under setting [1], 0.821 ± 0.095; under setting [2], 0.00537 ± 0.0023.
On to UGGACCUACAAGCUUGCAUAGUAUUUAGUUA, for which the “pre-steady-state target cleavage rate” value reads like this: under setting [1], 1.03 ± 0.058; under setting [2], 0.0528 ± 0.0098.
On to UCCACCUACAGCUUGCAUACUAAUUAGUUA, for which the “pre-steady-state target cleavage rate” value under setting [1] is 0.186 ± 0.025 and the “pre-steady-state target cleavage rate” value under setting [2] came out at 0.00741 ± 0.0024.
For UCCUGGAUGUGCUUGCAAAGUAUUAAGUUA the same measures were 0.0289 ± 0.0064 and 0.0112 ± 0.0033.
For AGGACCUACAGCUUGCAUAGUAUUAAGUAA the same measures were 0.421 ± 0.044 and 0.0136 ± 0.0047.
The corresponding values for UCCUGGAACACUUGCAUAGUAUUUAGUUA are 0.596 ± 0.032 and 0.0132 ± 0.0044.
Take UCCUGGAUCAGCUUGCAUAGUAUUGAGUUA: the “pre-steady-state target cleavage rate” value runs as follows: under setting [1], 0.651 ± 0.064; under setting [2], 0.0365 ± 0.0077.
On to UCCUGGUACAGGUUGCAUAGUAAUUAGUUA, for which the “pre-steady-state target cleavage rate” value is 0.745 ± 0.12 under setting [1] and 0.0101 ± 0.0023 under setting [2].
For UCCUGCUUCAGCUUGCAUAGUAAUUAGUUA, the “pre-steady-state target cleavage rate” value is, setting by setting: under setting [1], 0.823 ± 0.043; under setting [2], 0.0173 ± 0.0042.
The corresponding values for UCCUCCUACAGCUUGCAUAGUUUAUAGUUA are 0.115 ± 0.017 and 0.0104 ± 0.002.
For UCCACGUACAGCUUCCAUAGUAUUUAGUUA, the “pre-steady-state target cleavage rate” value under setting [1] was 0.0581 ± 0.014 and the “pre-steady-state target cleavage rate” value under setting [2] came out at 0.0042 ± 0.0014.
For UCCUGGAUCAGCUUGCUUAGUAUUUUGUUA the same measures were 0.578 ± 0.049 and 0.0112 ± 0.0038.
On to UCCUGGAUCAUGCUUGCAUAGUAUUUAGUUA, for which the “pre-steady-state target cleavage rate” value by setting is: under setting [1], 1.04 ± 0.054; under setting [2], 0.0609 ± 0.014.
For the sequence UCCAGGUACAGCUUGCAUAGUAUUUACAAA, the “pre-steady-state target cleavage rate” value was found to be 0.211 ± 0.033 under setting [1] and 0.00549 ± 0.0022 under setting [2].
Take UCCUGGAACUGGUUGCAUAGUAUUUAGUUA: the “pre-steady-state target cleavage rate” value by setting is: under setting [1], 0.517 ± 0.032; under setting [2], 0.00705 ± 0.0025.
For UCGACCUUCUGCUUGCAUAGUAUUUAGUUA the same measures were 1.45 ± 0.048 and 0.0653 ± 0.011.
For UCCACCUACAGCUAGCAUAGUAAUUAGUUA the same measures were 0.613 ± 0.035 and 0.00603 ± 0.0022.
Turning to UCCUGCUACUGCUUCCAUAGUAUUUAGUUA, the “pre-steady-state target cleavage rate” value reads like this: under setting [1], 0.0398 ± 0.01; under setting [2], 0.00359 ± 0.0022.
In the case of UCCACCUACAGCUUGCAUAGUAAUUUGUUA, the “pre-steady-state target cleavage rate” value runs as follows: under setting [1], 0.342 ± 0.038; under setting [2], 0.011 ± 0.0034.
The corresponding values for “AGGACCUACAGCUUGCAUAGUAUUUAGUUG [g2:g30:cont:t1G]” are 0.455 ± 0.046 and 0.0773 ± 0.018.
Consider UCCUGGAUGAGCUUGCAUAGUAUUUUCUUA, for which the “pre-steady-state target cleavage rate” value runs as follows: under setting [1], 0.13 ± 0.038; under setting [2], 0.00825 ± 0.0029.
The corresponding values for UCCUGGUAGAGCUUGCAUUGUAUUUAGUUA are 0.531 ± 0.024 and 0.0249 ± 0.0074.
Turning to UCCUCCUACAGCUUGGAUAGAAUUUAGUUA, the “pre-steady-state target cleavage rate” value by setting is: under setting [1], 0.332 ± 0.046; under setting [2], 0.0124 ± 0.0032.
For UCCUGGAUCUCCUUGCAUAGUAUUUAGUUA, the “pre-steady-state target cleavage rate” value reads like this: under setting [1], 0.474 ± 0.044; under setting [2], 0.0111 ± 0.0025.
As for UGGACCUUCAGCAUGCAUAGUAUUUAGUUA, the “pre-steady-state target cleavage rate” value was 1.24 ± 0.066 under setting [1] and 0.0343 ± 0.0072 under setting [2].
For the sequence AGGACCUACAGCUUGCAUACUAUUUAGAAA, the “pre-steady-state target cleavage rate” value runs as follows: under setting [1], 0.315 ± 0.055; under setting [2], 0.0104 ± 0.0029.
Consider UCCUGGAUGAUCUUGCAUAGUAUUUAGUUA, for which the “pre-steady-state target cleavage rate” value by setting is: under setting [1], 0.509 ± 0.038; under setting [2], 0.0215 ± 0.0057.
The corresponding values for UCCACCUACAGCUUGGUUAGUAUUUAGUAA are 0.537 ± 0.045 and 0.00379 ± 0.0021.
On to UCCUGGAUGUCCCUGCAUAGUAUUUAGUUA, for which the “pre-steady-state target cleavage rate” value runs as follows: under setting [1], 0.0135 ± 0.0046; under setting [2], 0.00302 ± 0.0021.
The corresponding values for UGGAGCUACACCUUGCAUAGUAUUUAGUUA are 1.12 ± 0.051 and 0.0597 ± 0.0097.
As for UGGACGAACAGCUUGCAUAGUAUUUACAAA, the “pre-steady-state target cleavage rate” value is, setting by setting: under setting [1], 0.264 ± 0.033; under setting [2], 0.0071 ± 0.0022.
In the case of AGGACCUACAGCUUGCAUAGUAUUUAGUA, the “pre-steady-state target cleavage rate” value runs as follows: under setting [1], 0.795 ± 0.042; under setting [2], 0.0502 ± 0.014.
For UCGUCCAACAGCUUGCAUAGUAUUUAGUUA the same measures were 1.4 ± 0.044 and 0.0771 ± 0.014.
For UGGACCUACAGCUUGCAUAGUAGUUUAGUUA, the “pre-steady-state target cleavage rate” value runs as follows: under setting [1], 0.456 ± 0.038; under setting [2], 0.0158 ± 0.0038.
Consider UCCUCGUACAGCUUGCAUAGUAUAUAGUUA, for which the “pre-steady-state target cleavage rate” value is 0.851 ± 0.036 under setting [1] and 0.0232 ± 0.0062 under setting [2].
For AGGACCUAGAGCUUGCAUACUAUUUAGUUA the same measures were 0.134 ± 0.013 and 0.0182 ± 0.0037.
For UGGACCUACAGCUAGCAUUGUAUUUAGUUA the same measures were 0.828 ± 0.042 and 0.0116 ± 0.0035.
On to UCCUCCUACAGCUUCGCAUAGUAUUUAGUUA, for which the “pre-steady-state target cleavage rate” value under setting [1] worked out at 1.08 ± 0.039 and the “pre-steady-state target cleavage rate” value under setting [2] amounted to 0.00906 ± 0.0025.
The corresponding values for UCCUGGAACAACUUGCAUAGUAUUUAGUUA are 0.989 ± 0.043 and 0.0463 ± 0.011.
The corresponding values for UCCUGGAACAGCUGGCAUAGUAUUUAGUUA are 0.759 ± 0.038 and 0.0271 ± 0.0057.
Take UGGUCCUACAGCUUGCAUAGUAUUUACAAA: the “pre-steady-state target cleavage rate” value came out at 0.209 ± 0.03 under setting [1] and 0.00562 ± 0.0026 under setting [2].
The corresponding values for “UCCUGGAACAGCUUGCAUAGUAUUUAGUUG [g2:g23:cont:t1G]” are 0.591 ± 0.032 and 0.0542 ± 0.01.
The corresponding values for UCCACCUACAGCUUGGAUAGUAUUUUGUUA are 0.712 ± 0.046 and 0.0292 ± 0.0047.
UCCUGGAACAGCUUGACAUAGUAUUUAGUUA: the “pre-steady-state target cleavage rate” value reads like this: under setting [1], 0.577 ± 0.039; under setting [2], 0.00762 ± 0.0037.
For UGGACCUACAGCUUGCAUAGUAUUUAAUUA the same measures were 0.218 ± 0.026 and 0.0278 ± 0.0048.
Turning to UCCUGGAUCAGCUCGCAUAGUAUUUAGUUA, the “pre-steady-state target cleavage rate” value under setting [1] is 1.27 ± 0.049 and the “pre-steady-state target cleavage rate” value under setting [2] stood at 0.0288 ± 0.0077.
As for UCCUGGAACAGCUUGCAUAGUAUUAUAGUUA, the “pre-steady-state target cleavage rate” value under setting [1] was determined as 0.625 ± 0.041 and the “pre-steady-state target cleavage rate” value under setting [2] was found to be 0.0227 ± 0.005.
For AGGUCCUACAGCUUGCUUAGUAUUUAGUUA the same measures were 1.54 ± 0.069 and 0.0542 ± 0.011.
For UCCUGGAUGAAGCUUGCAUAGUAUUUAGUUA the same measures were 0.716 ± 0.035 and 0.0807 ± 0.017.
For UGGACGUACAGCUUCCAUAGUAUUUAGUUA the same measures were 0.0744 ± 0.012 and 0.00782 ± 0.0015.
In the case of UCCUCCUACAGCUUGCAUAGUCUUUAGUUA, the “pre-steady-state target cleavage rate” value reads like this: under setting [1], 0.543 ± 0.029; under setting [2], 0.0397 ± 0.0078.
For UCGACCUACAGCUUGCAUAGUAUUUAGUAUA, the “pre-steady-state target cleavage rate” value was found to be 0.98 ± 0.048 under setting [1] and 0.0194 ± 0.0059 under setting [2].
